Measurements taken from publication PMC4336329 (PLoS ONE, 2015).
The whole screen tested about 310,000 compounds, of which about 14,000 (4.5%) showed an effect of 50% or more. The effect is printed as a negative number. The list shows a part of the results.

These molecules were tested against human ether-à-go-go-related gene (hERG) potassium channel (human, UniProt Q12809) (assay: primary screen, population patch clamp on CHO cells stably expressing hERG).
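Further: peak tail current of the secondary pulse compared with the same well before compound.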

human ether-à-go-go-related gene (hERG) potassium channel, sequence (Q12809 whole entry, looked up): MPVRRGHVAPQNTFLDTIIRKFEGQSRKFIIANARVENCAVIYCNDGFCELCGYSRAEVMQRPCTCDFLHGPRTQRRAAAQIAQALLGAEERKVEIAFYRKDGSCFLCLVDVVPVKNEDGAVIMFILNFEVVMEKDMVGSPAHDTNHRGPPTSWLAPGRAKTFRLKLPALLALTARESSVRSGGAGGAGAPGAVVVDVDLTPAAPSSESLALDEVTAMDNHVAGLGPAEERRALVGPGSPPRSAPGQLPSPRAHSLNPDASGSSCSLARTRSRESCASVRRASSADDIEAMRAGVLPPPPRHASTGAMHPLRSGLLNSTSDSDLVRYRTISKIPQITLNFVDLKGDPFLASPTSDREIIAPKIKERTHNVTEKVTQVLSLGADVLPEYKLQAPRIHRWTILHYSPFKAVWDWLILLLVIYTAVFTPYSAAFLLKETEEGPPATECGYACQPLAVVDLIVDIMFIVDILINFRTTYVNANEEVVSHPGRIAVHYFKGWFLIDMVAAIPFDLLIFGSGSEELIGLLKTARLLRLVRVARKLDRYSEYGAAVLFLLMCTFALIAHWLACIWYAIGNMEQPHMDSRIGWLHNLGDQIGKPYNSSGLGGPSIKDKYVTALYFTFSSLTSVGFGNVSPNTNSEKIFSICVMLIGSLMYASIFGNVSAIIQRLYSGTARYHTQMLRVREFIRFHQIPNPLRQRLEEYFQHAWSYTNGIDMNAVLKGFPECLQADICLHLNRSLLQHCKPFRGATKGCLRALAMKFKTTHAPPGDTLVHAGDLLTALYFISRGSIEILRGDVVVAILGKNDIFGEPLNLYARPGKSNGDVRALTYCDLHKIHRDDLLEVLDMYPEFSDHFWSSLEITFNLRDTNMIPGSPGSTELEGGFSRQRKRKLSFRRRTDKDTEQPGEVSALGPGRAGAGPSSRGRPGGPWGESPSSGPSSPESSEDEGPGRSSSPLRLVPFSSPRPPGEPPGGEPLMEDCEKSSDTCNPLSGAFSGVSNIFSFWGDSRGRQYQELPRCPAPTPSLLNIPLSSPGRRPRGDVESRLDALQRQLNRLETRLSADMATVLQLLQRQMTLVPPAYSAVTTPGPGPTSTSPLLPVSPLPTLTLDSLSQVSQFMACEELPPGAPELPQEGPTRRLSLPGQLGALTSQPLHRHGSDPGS

| SMILES | hERG current change (%, negative = inhibition) at 10uM [%] |
| --- | --- |
| Cc1c(S(=O)(=O)N2CCc3ccccc3C2)c(=O)n(C)c(=O)n1C | -4.24 |
| Cc1cccc(C(=O)N2CCCCCC2)c1 | 2.61 |
| CS(=O)(=O)c1ccc(C(=O)N2CCC(C(=O)O)(c3ccccc3)CC2)cc1 | 35.2 |
| C[N+](C)(C)CC(=O)N/N=C/c1c2ccccc2cc2ccccc12.[Cl-] | -6.73 |
| CCOC(=O)[C@@H]1[C@H]2COc3ccc(Br)cc3[C@@H]2N2C(=O)N(c3ccccc3)C(=O)[C@@]12C | -5.89 |
| COc1cc(NC(=O)c2ccc(C(C)(C)C)cc2)c(OC)cc1NC(=O)CN1CCCCC1 | 15.5 |
| COC(=O)Nc1ccc(SCC(=O)c2cccc([N+](=O)[O-])c2)cc1 | -4.15 |
| CCCCOc1ccc(CSc2nnc(C)n2N)cc1[N+](=O)[O-] | -31.5 |
| CC(C)CCNC(=O)[C@H](CSCc1ccccc1)N1Cc2ccccc2C1=O | -61 |
| CC1CCN(S(=O)(=O)c2ccc(S(=O)(=O)N3CCC4(CC3)OCCO4)cc2)CC1 | -1.06 |
| CC(=O)N1N=C(c2cccs2)CC1c1ccco1 (centres unmarked) | 9.83 |
| N#Cc1cc2nc([O-])c([O-])nc2cc1[N+](=O)[O-].[Na+] | 17.8 |
| Cn1cccc1/C=C1\SC(=O)N(CC(=O)Nc2ccc(Cl)cc2)C1=O | 22.1 |
| CCOc1ccccc1N1CCN(Cc2cccc(OC)c2O)CC1 | -25.8 |
| COc1ccc(CN(C2CCCC2)S(=O)(=O)c2ccc(-n3cnnn3)c(OC)c2)cc1OC | -28.1 |
| CCOC(=O)c1ccc(NC(=O)CNS(=O)(=O)c2ccccc2)cc1 | 8.6 |
| Cc1c(C(=O)Nc2ccc(F)cc2)nnn1-c1cccc(C(F)(F)F)c1 | 1.52 |
| CC(=O)Nc1cccc(/C(C)=N/NC(=O)c2c(-c3ccccc3Cl)noc2C)c1 | -2.37 |
| COc1ccc(CNC(=O)C2Cc3ccccc3CN2C(=O)c2ccco2)cc1 (centres unmarked) | -49 |
| COc1ccc(Cl)cc1S(=O)(=O)N1CCN(c2ccc(F)cc2)CC1 | -23.1 |
| CSc1c(CC(=O)Nc2ccc(F)cc2)n(Cc2ccccc2)c2ccccc12 | -7.56 |
| COc1ccc(C)cc1C(=O)CCC(=O)Nc1ccccc1N1CCOCC1 | 1.65 |
| CC1(C)Cc2ccccc2C(=C(C#N)C#N)N1 | -2.25 |

| SMILES | hERG current change (%, negative = inhibition) at 10uM [%] |
| --- | --- |
| Cc1ccc(OCC(=O)Nc2ccc3c(c2)OCO3)c(C)c1 | 3.47 |
| CCCNc1nc(C)cc(-c2cc(-c3ccc(Cl)cc3)on2)n1 | 9.18 |
| CCc1nnc(NC(=O)c2ccc(-c3ccccc3Cl)o2)s1 | 4.85 |
| CNCCCOc1cc(C)cc(C)c1C.O=C(O)C(=O)O | 7.23 |
| CC1CCN(CC(=O)Nc2ccccc2C(=O)c2ccccc2)CC1 | -10.6 |
| Nc1nnc(SCn2nnc3ccccc3c2=O)s1 | 21 |
| COc1ccc(-c2cc(C(=O)Nc3ccc(C(N)=O)cc3)c3ccccc3n2)cc1OC | 8.99 |
| CCOP(=O)(OCC)C(O)c1cccnc1 (centres unmarked) | -3.65 |
| C=CCn1cccc(/C=C/C(=O)c2ccc(C(C)(C)C)cc2)c1=S | 3.37 |
| Cc1ccc(OCc2nc(-c3ccccn3)no2)cc1 | -5.28 |
| O=C(CNC(=O)c1ccc(Br)o1)NCc1ccc(F)cc1 | 18.1 |
| COc1ccc(OC)c(/C=N/N=C2\SCC(=O)N2Cc2ccco2)c1 | 6.61 |
| CCCCN(C)CCn1c(=S)[nH]c2ncccc2c1=O | -24 |
| CC(C)c1nc(SCC(=O)Nc2nc3c(s2)CCCC3)c2ccccc2n1 | -2.4 |
| O=C1N/C(=C\c2ccc(O)cc2)C(O)=C1C=NCc1ccccc1 | 6.64 |
| Cc1ccc(-n2c3c(cc(C(=O)NCC(=O)c4ccccc4)c2=O)C(=O)CCC3)cc1 | 10.2 |
| Cc1ccc(/C(N)=N/OC(=O)C23CC4CC(CC(C4)C2)C3)cc1 | 3.85 |
| COc1ccc([C@@H]2C[C@H]3CN(c4ccccc4)C(=O)[C@]34CCCN24)c(OC)c1OC | -78.3 |
| CCc1ccccc1OCC(=O)OCC(=O)Nc1cc(C)on1 | -2.74 |
| CN(C(=O)COc1cccc(Br)c1)C1CCS(=O)(=O)C1 (centres unmarked) | 17.5 |
| COc1cc(C(=O)[O-])ccc1Cl.[NH4+] | 16.4 |
| CCNC(=O)CN1C(=O)NC2(CCOc3ccccc32)C1=O (centres unmarked) | 12.7 |
| CC(=O)Nc1ccc(SCC(=O)c2cc(C)n(-c3ccccc3F)c2C)cc1 | 5.28 |

| SMILES | hERG current change (%, negative = inhibition) at 10uM [%] |
| --- | --- |
| COc1cccc(OCc2nnc(SCC(=O)OCc3ccccc3)o2)c1 | -4.36 |
| Cc1oc(C)c(S(=O)(=O)NCc2cccs2)c1C(=O)O | -0.392 |
| O=C1N=C(N2CCOCC2)S/C1=C/c1ccc(-c2ccc(F)cc2)o1 | 2.43 |
| N=C1C(c2ccccc2)=C(O)CN1CCO | 23.7 |
| Cc1ccc(NC(=O)c2ccc(CSc3nnnn3C)cc2)cc1 | -15.3 |
| CCOC(=O)C1=C(C)NC(C)=C(C(=O)OCCNC(=O)c2cccnc2)C1c1cccc([N+](=O)[O-])c1 (centres unmarked) | -6.38 |
| COc1ccc(CCNC(=O)CNC(=O)c2ccc(Br)o2)cc1OC | -29.9 |
| CS(=O)(=O)N1CCN(c2ccccc2NC(=O)c2cccs2)CC1 | -49.9 |
| COc1ccc(N(CC(=O)NCCc2ccccc2)C(=O)c2csnn2)cc1 | -25.2 |
| COc1ccc(NC(=O)CC2C(=O)N(C)C(=S)N2Cc2ccncc2)cc1 (centres unmarked) | 5.18 |
| O=C1NC(=O)/C(=C/C(=O)N2CCOCC2)S1 | 2.82 |
| NC(=O)c1ccc(NC(=O)c2cccc(Oc3ccccc3)c2)cc1 | 16.9 |
| Cc1cc(NCCC(C)C)n2nc(C)c(-c3ccccc3)c2n1 | 1.03 |
| Cc1ccc(C(=O)C2=C(O)C(=O)N(Cc3cccnc3)C2c2ccc(Cl)c(Cl)c2)o1 (centres unmarked) | 13 |
| COC(=O)CCCC1=CC2=C(c3ccccc3)C(=O)C(C)(OC(=O)C3CCCC3)C(=O)C2=CN1CC(C)C (centres unmarked) | -1.56 |
| Cc1ccccc1C(=O)Nc1ccccc1N1CCN(C(=O)c2ccccc2)CC1 | -74 |
| CC1CCC(NC(=O)C2CCN(S(=O)(=O)c3ccc4nc5c(c(C(=O)O)c4c3)CC(C)CC5)CC2)CC1 (centres unmarked) | 16.1 |
| O=C(O)CC1CCC(=C(Cl)Cl)C1 (centres unmarked) | -3.88 |
| CC(C)(C)c1cc(C(=O)N2CCc3ccccc3C2)ccn1 | 1.64 |
| CCOC(=O)Cc1ccc(NC(=O)c2cccc([N+](=O)[O-])c2)cc1 | 5.55 |
| CC1CN(c2nc3c(c(=O)n(C)c(=O)n3C)n2Cc2c(F)cccc2Cl)CC(C)O1 (centres unmarked) | -7.08 |
| CCOC(=O)C1CCCN(C(=O)COc2ccc(S(=O)(=O)N(CC)c3ccccc3)cc2)C1 (centres unmarked) | -51.8 |
| CN(CC1CCOCC1)C(=O)CC1C(=O)NCCN1Cc1cccc(Oc2ccccc2)c1 (centres unmarked) | 33.4 |

| SMILES | hERG current change (%, negative = inhibition) at 10uM [%] |
| --- | --- |
| O=C(O)C(=O)O.O=[N+]([O-])c1ccc(OCCN2CCCCCC2)cc1 | -86.1 |
| Cc1n[nH]c(=O)nc1N1CCc2ccccc2C1 | 4.47 |
| COc1ccc(C2NC(C(=O)O)CS2)cc1COCC(F)(F)F (centres unmarked) | 3.38 |
| Cl.NCCc1c[nH]c2ccc(F)cc12 | 17.4 |
| CCOC(=O)c1nnn(CC(=O)Nc2cccc(F)c2)c1C(=O)OCC | 7.97 |
| CSc1cccc(CN2CCN(CCC(C)C)C(CCO)C2)c1 (centres unmarked) | -33.2 |
| O=C(NC1CCCCC1)C(c1ccco1)N(Cc1ccco1)C(=O)c1ccco1 (centres unmarked) | -9.2 |
| CC(=O)N(C)c1ccc(N2CCOCC2)c2c1C(=O)c1ccccc1C2=O | -0.974 |
| N#Cc1c(-c2ccco2)ccn(Cc2cccc(F)c2)c1=O | 9.79 |
| CC(NC(=O)COc1ccc(-c2ccccc2)cc1)C1CCCO1 (centres unmarked) | -6.36 |
| CCOC(=O)C1(CC2CCCCO2)CCN(C(=O)Nc2ccc3c(c2)OCO3)CC1 (centres unmarked) | 15.9 |
| COc1ccc(NC(=O)CSc2n[nH]c(CNc3cccc(C)c3)n2)cc1 | -4.57 |
| c1cncc(CNc2ncn[nH]2)c1 | 7.23 |
| Cc1cc(C)cc(OCC(=O)NCc2nc(-c3ccccc3)no2)c1 | 6.96 |
| COc1ccc(C(=O)NNC(=O)c2ccc(C)cc2)cc1S(=O)(=O)N1CCCC1 | -6.29 |
| CCc1ccc(S(=O)(=O)NCc2cccs2)cc1 | -17.6 |
| CCCCNC(=O)c1[nH]c(C)c(C(C)=O)c1C | 13.5 |
| c1ccc(-c2noc(CCC3CCCC3)n2)cc1 | 17.8 |
| O=C(Nc1cc(C(F)(F)F)ccc1N1CCOCC1)c1ccc2ccccc2n1 | 26.2 |
| Cc1ccc(NC(=O)COC(=O)c2ccn(C)n2)cc1 | -3.92 |
